Several values for one entry are separate records, joined by “and”; a condition that tells them apart may be missing. Equal entries are not always repeated. Screen size: about 50,000 compounds; about 800 (1.6%) showed an effect of 50% or more. Some of the results follow.

In this assay the target is Bcl-2-like protein 10 (Homo sapiens) (UniProt Q9HD36). Description: TR3 peptide-Bcl-B binding displacers, biochemical primary FP assay, phenotype converters (AID 1240).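 Also: 0% = Bcl-B with tracer peptide and DMSO and 100% = tracer peptide lacking Bcl-B.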 The conditions noted are these: GST-Bcl-B / FITC-TR3 peptide fluorescence polarization; stronger effect = higher value; compound at 3.75 mg/L.
Chain of UniProt Q9HD36 (Q9HD36 whole entry, looked up): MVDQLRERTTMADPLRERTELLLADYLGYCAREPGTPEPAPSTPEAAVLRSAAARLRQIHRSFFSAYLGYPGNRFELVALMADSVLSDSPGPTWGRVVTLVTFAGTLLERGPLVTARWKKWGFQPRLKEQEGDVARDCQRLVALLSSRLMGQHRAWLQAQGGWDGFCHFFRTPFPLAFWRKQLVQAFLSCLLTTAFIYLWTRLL
On to `CC1(C)CC(NC(=O)C(=O)Nc2ccccc2)CC(C)(C)N1`, for which the displacement was 10.9%.
For `CCOc1cc(-c2ccc(O)cc2)cc(=O)c2c(C)oc(C)c12`, the displacement amounted to 26.1%.
On to `Nc1nnc(Cc2ccccc2F)s1`, for which the displacement was -12.1%.
Then `Cn1c(=O)c([N+](=O)[O-])c(NCc2ccccc2)c2ccccc21`, with 6.6%.
On to `COc1ccc(/C=C2\C=C(c3ccc(Cl)cc3)OC2=O)c(OC)c1`, for which the displacement was 25.2%.
For `O=C(COc1ccc2ccccc2c1)Nc1ccc(O)c(-c2nc3ccccc3o2)c1`, the displacement turned out to be 13.4%.
Consider `COc1ccc(-c2nc(=S)[nH][nH]2)cc1`, for which the displacement was -22.6% and -2.1%.
In the case of `COc1ccc(NC(=O)/C=C/c2ccccc2Cl)c(OC)c1`, the displacement turned out to be 2.5%.
For `Cc1cc(Cl)ccc1OCC(=O)Nc1ccc([N+](=O)[O-])cc1`, the displacement is -4.5%.
Then `O=C(CCC1CCCC1)Nc1nc(-c2ccc(Cl)cc2)cs1`, with 0.6%; and `CCOC(=O)c1c(-c2ccc(F)cc2)csc1NC(=O)C1CCCCC1C(=O)O` (stereo not drawn), with -12.9%; and `CCN(CC)CCCOc1ccc(C)cc1Cl`, with 4.6%.
Turning to `CC1CCN(c2cccc3c2C(=O)c2ccccc2C3=O)CC1`, the displacement turned out to be 15.4%.
Regarding `CC1=C(C(=O)Nc2ccc(C)cc2)C(c2cccc(Br)c2)NC(=S)N1` (stereo not drawn), the displacement was -3.3%.
As to `Cc1cc(C=C2C(=O)c3ccccc3C2=O)c(C)n1-c1ccc(Cl)cc1`, the displacement came out at 100%.
Take `COc1cc2c(C(=O)O)c(C)n(C)c2c2ccccc12`: the displacement was 9.6%.
On to `O=C(c1ccc(F)cc1)N1CCc2ccccc21`, for which the displacement amounted to 12.4%.
Then `CCOc1ccc(C(=O)Nc2ccc(OC)c(OC)c2)cc1`, with -1.2%; and `COc1ccc(NC(=O)CN(c2ccc(C(C)C)cc2)S(=O)(=O)c2ccccc2)cc1OC`, with 2.8%; and `O=C(COc1ccc(Cl)cc1Br)NNC(=O)c1ccc(O)cc1`, with -10.8%.
Then `Cc1cc(C)c(NC(=O)c2cccc(N3C(=O)c4ccc(C(=O)Nc5c(C)cc(C)cc5C)cc4C3=O)c2)c(C)c1`, with 10.9%; and `O=C1NC(=S)S/C1=C\c1ccc(OS(=O)(=O)c2cccc([N+](=O)[O-])c2)cc1`, with 34.4%; and `Cc1ccc(NCC(O)COc2ccc(OCC(O)CNc3ccc(C)cc3C)cc2)c(C)c1` (stereo not drawn), with 15.4%.
Regarding `COc1cc(/C=N/NC(=O)c2cccnc2)cc2c1OCO2`, the displacement turned out to be 5.2%.
`COC(=O)CN(c1ccccc1F)S(C)(=O)=O`: the displacement came out at 13.8%.
As for `O=C(NNc1nc(-c2ccccc2)c2cc(Br)ccc2n1)c1ccccc1`, the displacement is -12.9%.
Then `CC(C)COc1ccc(C(=O)Nc2ccc(Cl)cc2Cl)cc1`, with 11.6%.
Take `O=C(COc1ccc(Br)cc1)Nc1ccc2oc(-c3cccnc3)nc2c1`: the displacement turned out to be 12.9%.
For the compound `Cc1c(Cl)cccc1NC1CS(=O)(=O)CC1O` (stereo not drawn), the displacement was -0.9%.
With `CCCc1[nH]n(-c2nc3ccccc3s2)c(=O)c1C=NCCc1ccccc1`, the displacement was -1%.
Take `CC1=C(C(=O)Nc2ccc(C)cc2)C(c2ccc(F)cc2)NC(=O)N1` (stereo not drawn): the displacement was -2.2%.
For `O=C(O)c1cccc2c(=O)oc3ccccc3c12`, the displacement is -6.8%.
For the compound `COc1ccc(CSc2nnc(SCc3ccc(OC)c(F)c3)s2)cc1F`, the displacement turned out to be 13.5%.
With `CC(C)CC(=O)Nc1nnc(Cc2ccc(Cl)cc2Cl)s1` the figure was 5.3%; with `COc1ccc(/C=N/Nc2ccccc2)cc1O`, 16%.
With `O=C(/C=C/c1ccc(-c2ccccc2[N+](=O)[O-])o1)Nc1ccc(-c2nc3ccccc3o2)cc1` the figure was 1.9%.
In the case of `COc1cc(OC)c(/C=C2\C(=O)NC(=O)N(c3cccc(C)c3)C2=O)cc1Br`, the displacement was 12.6%.
As for `Cc1ccc(/C=C2\SC(N3CCN(C)CC3)=NC2=O)cc1`, the displacement was -6%.
Consider `Cc1cc(C)c(NC(=O)COc2ccc(Br)c(C)c2)c(C)c1`, for which the displacement was -7.9%.
As for `CCN1C(=O)/C(=C\c2cc(Cl)c(OCCOc3cccc(OC)c3)c(OC)c2)SC1=S`, the displacement was 2.9%.
As to `O=c1oc2ccccc2cc1-c1nc(-c2ccc(Cl)c(Cl)c2)cs1`, the displacement came to 61.2%.
Then `CCC(C)c1ccc(OCCOc2ccc(Cl)cc2/C=N/n2cnnc2)cc1` (stereo not drawn), with -0.3%.
`N/C(=N/c1nc2ccccc2o1)NC(=O)c1ccccc1[N+](=O)[O-]`: the displacement was -14.9%.
For `COc1cccc(C2C(C(=O)Nc3ccccc3)=C(C)N=c3s/c(=C\c4ccc(N5CCOCC5)o4)c(=O)n32)c1` (stereo not drawn), the displacement was 6.9%.
Then `CCOc1ccc(NC(=O)c2cc(Br)ccc2Cl)cc1`, with 15%; and `Nc1nc(-c2cccs2)c(NC(=O)c2ccccc2)s1`, with 8.5%.
For `CC1=C(C(=O)Nc2ccccc2C)C(c2ccc(Cl)cc2Cl)NC(=O)N1` (stereo not drawn), the displacement is 7.5%.
With `Cc1ccc(C)c(C(=O)CSc2ncn[nH]2)c1`, the displacement was determined as 10.1%.
`CC(C)CC(=O)NS(=O)(=O)c1ccc(NS(C)(=O)=O)cc1`: the displacement is 12.6%.
Regarding `Cc1cc(C)cc(NS(=O)(=O)c2cccc([N+](=O)[O-])c2)c1`, the displacement is -1.3%.
For `Cc1ccc(S(=O)(=O)Nc2ccc3c(c2)ncn3-c2ccccc2)cc1`, the displacement worked out at 7.2%.
As to `COc1cc(C(=O)Nc2cccc3nsnc23)cc(OC)c1OC`, the displacement was 22.7%.
Regarding `COc1cc([N+](=O)[O-])ccc1NC(=O)C(C)C`, the displacement stood at 5.3%.
Regarding `O=C(CSc1nc2ccccc2c(=O)n1-c1ccccc1)Nc1ccc([N+](=O)[O-])cc1`, the displacement is 2.3%.
With `CCC(=O)Nc1sc2c(c1C(=O)Nc1ccc(OC)cc1)CCC2`, the displacement is 13.8%.
As to `O=C(O/C(=C/c1nccn1Cc1ccccc1Cl)c1ccc(F)cc1)c1ccc(F)cc1`, the displacement is -13.6%.
Regarding `O=C(Nc1ccc(Br)cc1)c1ccc(Cl)cc1Cl`, the displacement is -9.7%.
With `Cc1ccc(S(=O)(=O)ON2C(=O)c3ccccc3C2=O)cc1`, the displacement is -6.3%.
For the compound `O=C(Nc1ccc(O)cc1)c1ccc2c(c1)C(=O)N(c1ccc([N+](=O)[O-])cc1)C2=O`, the displacement stood at 15.4%.
Consider `Cc1nc(N)sc1-c1csc(Nc2ccc(S(N)(=O)=O)cc2)n1`, for which the displacement is 8.2%.
`COC(=O)c1c(NC(=O)c2ccc(C)cc2)sc2c1CCCCC2`: the displacement is -9.3%.
With `CCOc1ccc2ccccc2c1/C=N\NC(=O)c1ccc([N+](=O)[O-])cc1` the figure was 6.5%; with `NC(=O)/C=C/c1cn(-c2ccccc2)nc1-c1ccccc1`, 7.3%; with `COc1cc2c(cc1OC)C(c1cc([N+](=O)[O-])ccc1OC(C)=O)N(C(C)=O)CC2` (stereo not drawn), 13.9%.
For `Cc1ccc(NC(=O)c2ccc(C#Cc3ccccc3)cc2)cc1C`, the displacement is 9.4%.
Consider `CCCC(=O)NC(c1cccc([N+](=O)[O-])c1)c1ccc2cccnc2c1O` (stereo not drawn), for which the displacement was 5.2%.
With `O=C(CCc1ccccc1)Nc1ccc(Cl)c([N+](=O)[O-])c1` the figure was -0.7%.
Consider `CC(C)CCC(C(N)=O)C1=NC(C)(C)Cc2ccccc21` (stereo not drawn), for which the displacement amounted to 3.8%.
Turning to `COc1ccc(Cl)cc1NC(=O)CN(c1cccc([N+](=O)[O-])c1)S(=O)(=O)c1ccccc1`, the displacement was found to be 3.9%.
For the compound `Cc1ccc(C(=O)NC(=S)Nc2ccc3oc(-c4ccccc4)nc3c2)cc1`, the displacement stood at 7.1%.
On to `CC1=NN(c2cccc(C(=O)O)c2)C(=O)/C1=C\c1ccc(-c2ccc([N+](=O)[O-])cc2)o1`, for which the displacement was -0.9%.
Take `COc1ccc(C2(C)SC(NC(C)=O)=NN2C(C)=O)cc1` (stereo not drawn): the displacement worked out at 8.2%.
As to `COc1ccc(/C=C2/C(=O)NN(c3ccc(C)cc3)C2=O)cc1Br`, the displacement stood at 9.4%.
Then `CC(C)COc1ccc(C(=O)Nc2sc3c(c2C(N)=O)CCCCCC3)cc1`, with -6.4%.
With `Cc1ccc(/C=C2\SC(N3CCC(C)CC3)=NC2=O)cc1` the figure was -15%; with `C#CCOc1c(Cl)cc(/C=C2\C(=O)NC(=O)N(c3ccc(C)cc3)C2=O)cc1OCC`, -13.6%; with `O=[N+]([O-])c1ccc(-n2cccn2)c(-c2nn[nH]n2)c1`, -0.5%.
For the compound `CCOc1ccc(C(=O)Nc2ccc(NC(=O)c3cc4ccccc4o3)c(OC)c2)cc1[N+](=O)[O-]`, the displacement is -1.3%.
As for `O=C(CCN1CCC(c2ccccc2)C1)c1ccc2c(c1)OCCO2` (stereo not drawn), the displacement is -0.5%.
Then `COc1ccc(/C=C(\NC(=O)c2ccccc2Br)C(=O)O)cc1`, with -8.9%; and `CN(c1ccc(C(=O)NCCSCc2cccc(Cl)c2)cc1)S(=O)(=O)c1ccccc1`, with -3.5%.
In the case of `O=C(NCc1ccc2c(c1)OCO2)Nc1ccc(Cl)c(Cl)c1`, the displacement was -5.3%.
Then `CCOC(=O)c1cnc2c(-c3ccccc3)c(C)nn2c1C`, with -0.2%; and `Cc1c(C(=O)N2CCC(Cc3ccccc3)CC2)cccc1[N+](=O)[O-]`, with -8.4%; and `COc1cc(C2NC(=O)NC(C)=C2C(=O)Nc2ccc(C)cc2)ccc1O` (stereo not drawn), with 2.3%.
Regarding `CCC1CCc2c(sc3nc(SCC(=O)NCc4ccco4)n(-c4ccccc4)c(=O)c23)C1` (stereo not drawn), the displacement was -11.7%.
In the case of `CCc1ccc2oc(-c3cccc(NC(=O)c4ccccc4Br)c3)nc2c1`, the displacement was -12%.
On to `CCCOn1nnc2ccc([N+](=O)[O-])cc21`, for which the displacement was -8.7%.
Take `COc1cc(N=Cc2c(O)n(-c3ccccc3F)c(=O)[nH]c2=O)cc(OC)c1`: the displacement came out at 4.2%.
With `Cc1ccc(S(=O)(=O)NC(=O)N2CCN(Cc3ccccc3)CC2)cc1`, the displacement was found to be 11.4%.
Then `COc1ccccc1C(=O)Nc1nnc(C(C)(C)C)s1`, with -11.4%; and `COc1ccc2ccccc2c1/C=N/NC(=O)c1cc(C)[nH]n1`, with 35.8%; and `O=C1NC(=Nc2cccc(O)c2)S/C1=C\c1ccc(F)cc1`, with 75.8%.
Regarding `Cc1nonc1C(=O)N/N=C/c1ccc2c(c1)OCO2`, the displacement came to 0.5%.
Then `CCOc1ccccc1C=NN1CCN(c2ccc(Cl)cc2)CC1`, with -21%; and `COc1ccc(C(=O)Nc2ccc(Cl)cn2)cc1Br`, with 10%; and `CCOc1ccc(S(=O)(=O)Nc2ccccn2)c2ccccc12`, with 15.4%.
With `CN(Cc1ccccc1)C(=O)c1cc2ccccc2o1`, the displacement is 2.4%.
With `O=C(CC1S/C(=N\N=C\c2ccccc2)NC1=O)Nc1ccccc1Br` (stereo not drawn) the figure was 2.2%; with `CCOC(=O)C1=C(O)/C(=C\c2ccccc2Cl)N=C1C`, 8%.
As to `CC(=O)N/C(C)=C1\C(=O)CC2C1C2(C)C` (stereo not drawn), the displacement was 17.9%.
Then `CCc1ccc(OCCNc2cc(NCC(C)O)ccc2[N+](=O)[O-])cc1` (stereo not drawn), with 0.7%; and `CC(C)c1nn2c(N)c(C=C3C=CC(=O)C=C3)c(=O)nc2s1`, with -0.1%.
Regarding `COc1cccc(/C=N/NC(=O)C(=O)N2CCCCCC2)c1O`, the displacement is -18.7%.
Take `Cc1ccnc(NS(=O)(=O)c2ccc(NC(=O)/C=C/c3ccc(C(C)C)cc3)cc2)n1`: the displacement is -8.5%.
On to `O=C(/C=C/c1ccc2ncccc2c1)c1c(-c2ccccc2)c2cc([N+](=O)[O-])ccc2[nH]c1=O`, for which the displacement worked out at 8.7%.
Then `COC(=O)c1ccc(/C=C2\C(=O)NC(=O)N(c3cccc(Br)c3)C2=O)cc1`, with 4%; and `O=C(Nc1cc(C(F)(F)F)ccc1Cl)c1ccc2c(c1)OCO2`, with 6.3%.

The values are drawn from PubChem BioAssay AID1240 (Sanford-Burnham Center for Chemical Genomics, 2008).
